Counter-ions that a name gives are not always drawn. ± gives the standard deviation of the averaged measurements. Over roughly 3,200 compounds, “nuclei count (viability) relative to DMSO” has its median near 99; the lowest 2% begin near 16. The list shows a part of the results.
What follows are compounds tested on U2OS (assay: nuclei count (viability) relative to DMSO (% of DMSO); higher = more viable cells). Conditions: 10 µM; 24 h.
Description: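 Primary image-based screen in U2OS cells: compounds at 10 uM for 24 h, then a 1 h o-propargyl-puromycin (OPP) pulse, click labelling, and high-throughput microscopy. Mean cytoplasmic OPP intensity and nuclei count were normalised to DMSO wells within each plate (DMSO = 100) and averaged over triplicate plates.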

SMILES | nuclei count
Nc1cc(N2CCCCC2)nc(N)[n+]1OS(=O)(=O)[O-] [Minoxidil sulfate] | 88.6
Cc1cc(CS(=O)(=O)c2ccccc2)cc(OCc2ccc(CN3CCC[C@@H]3CO)cc2)c1 | 97
CCCCC#Cc1nc(NC)c2ncn([C@@H]3O[C@H](CO)[C@@H](O)[C@H]3O)c2n1 | 96.4
Cn1cnc(N)c2ncnc1-2 [3-Methyladenine (3-MA)] | 107
Cn1cnc(N)c2ncnc1-2 [3-Methyladenine] | 104
CCN(CC)C(=O)N1CCN(C)CC1 [Diethylcarbamazine citrate] | 113
O=C(O)c1cc(O)c(O)c(O)c1 [Gallic acid] | 103
O=P(O)(O)C(O)(Cc1cccnc1)P(=O)(O)O [Risedronic acid (Actonel)] | 104
O=P(O)(O)C(O)(Cc1cccnc1)P(=O)(O)O [Risedronate sodium] | 95.1
O=S(=O)(O)CCSSCCS(=O)(=O)O [Dimesna] | 103
CO[C@H]1C(=O)[C@]2(C)[C@@H](OC)C[C@H]3OC[C@@]3(OC(C)=O)[C@H]2[C@H](OC(=O)c2ccccc2)[C@]2(O)C[C@H](OC(=O)[C@H](O)[C@@H](NC(=O)OC(C)(C)C)c3ccccc3)C(C)=C1C2(C)C [Cabazitaxel (Jevtana)] | 47.7
CCCC(C(=O)OCCN(CC)CC)(c1ccccc1)c1ccccc1 [Proadifen hydrochloride] | 112
C=CC[N@@+]12CC[C@@]34c5ccccc5N5/C=C6/[C@H]7C[C@H]8[C@@]9(CC[N@@+]8(CC=C)C/C7=C/CO)c7ccccc7N(/C=C(/[C@@H](C[C@@H]31)/C(=C\CO)C2)[C@H]54)[C@@H]69 [Alcuronium chloride] | 101
C[C@H](CCC(=O)NCC(=O)O)[C@H]1CC[C@H]2[C@@H]3[C@H](O)C[C@@H]4C[C@H](O)CC[C@]4(C)[C@H]3C[C@H](O)[C@]12C [Glycocholic acid] | 106
Clc1ccc(COC(Cn2ccnc2)c2ccc(Cl)cc2Cl)cc1 (stereo not drawn) [Econazole nitrate] | 102
Clc1ccccc1C(c1ccccc1)(c1ccccc1)n1ccnc1 [Clotrimazole] | 97.6
CC[C@H](Nc1ncnc2[nH]cnc12)c1nc2cccc(F)c2c(=O)n1-c1ccccc1 | 100
CCOC(=O)C1=CN(Cc2ccccc2)C=C(C(=O)OCC)C1c1ccccc1 | 80.1
O=C(NC1CCNCC1)c1n[nH]cc1NC(=O)c1c(Cl)cccc1Cl | 41.2
CC(C)c1noc(N2CCC(COc3ccc(-c4ccc(S(C)(=O)=O)cc4)nc3)CC2)n1 | 109
Cc1onc(-c2ccccc2)c1C(=O)N[C@@H]1C(=O)N2[C@@H]1SC(C)(C)[C@@H]2C(=O)O [Oxacillin sodium monohydrate] | 86.8
Cc1onc(-c2ccccc2)c1C(=O)N[C@@H]1C(=O)N2[C@@H]1SC(C)(C)[C@@H]2C(=O)O [Oxacillin sodium] | 95.7
CN(C)[C@@H](CCOc1cccc2ccccc12)c1ccccc1 [Dapoxetine HCl (Priligy)] | 105
CCCC(CCC)C(=O)O [Valproic acid] | 104 ± 1.1

SMILES | nuclei count
CCCC(CCC)C(=O)O [Sodium Valproate] | 108
CCCC(CCC)C(=O)O [Sodium valproate] | 105
CN(C)CCCC1(c2ccc(F)cc2)OCc2cc(C#N)ccc21 (stereo not drawn) [Citalopram Hydrobromide] | 97.5
CN(C)CCCC1(c2ccc(F)cc2)OCc2cc(C#N)ccc21 (stereo not drawn) [Citalopram hydrobromide] | 96.7
COc1cc(N)c(Cl)cc1C(=O)NC1CCN(CCCOc2ccc(F)cc2)CC1OC (stereo not drawn) [Cisapride] | 107
CN(C)CCC(c1ccc(Cl)cc1)c1ccccn1 (stereo not drawn) [Chlorpheniramine maleate] | 87.7
CCN(CC)CCCCC1CCN(CC(=O)N2c3ccccc3C(=O)Nc3cccnc32)CC1 | 102
COc1ccccc1N1CCN(CCN2C(=O)CC3(CCCC3)CC2=O)CC1 [BMY 7378 dihydrochloride] | 99.8
O[C@@H](COc1cccc2ncccc12)CN1CCN(C2c3ccccc3[C@@H]3[C@H](c4ccccc42)C3(F)F)CC1 (stereo partly drawn) | 97.9
O=S(=O)(NCCNC/C=C/c1ccc(Br)cc1)c1cccc2cnccc12 | 84.6
O=S(=O)(NCCNC/C=C/c1ccc(Br)cc1)c1cccc2cnccc12 [H 89 dihydrochloride] | 98.2
C[C@H](NC(=O)/C(C#N)=C/c1ccc(O)c(O)c1)c1ccccc1 [Tyrphostin B44, (+) enantiomer] | 93.4
COc1ccc(-c2coc3cc(O)cc(O)c3c2=O)cc1 [Biochanin A (4-Methylgenistein)] | 89.8
CC(C)(C)c1cc(/C=C(\C#N)C(N)=S)cc(C(C)(C)C)c1O [Tyrphostin AG 879 (AG 879)] | 79.3
COC1=CC(=O)C[C@@H](C)[C@]12Oc1c(Cl)c(OC)cc(OC)c1C2=O [Griseofulvin] | 81.4
CCC(=O)NCC[C@@H]1CCc2ccc3c(c21)CCO3 [Ramelteon (TAK-375)] | 116
O=C(Nc1ccc(C(F)(F)F)cn1)N1CCN(c2ncccc2C(F)(F)F)CC1 | 100
COC(=O)Nc1nc2cc(C(=O)c3ccc(F)cc3)ccc2[nH]1 [Flubendazol] | 55.5
COC(=O)Nc1nc2cc(C(=O)c3ccc(F)cc3)ccc2[nH]1 [Flubendazole (Flutelmium)] | 66.8
NC1=N[C@@]2(c3cc(NC(=O)c4ccc(F)cn4)ccc3F)COC[C@H]2CS1 | 109
COC1=C(OC)C(=O)C(C/C=C(\C)CC/C=C(\C)CC/C=C(\C)CC/C=C(\C)CC/C=C(\C)CC/C=C(\C)CC/C=C(\C)CC/C=C(\C)CC/C=C(\C)CCC=C(C)C)=C(C)C1=O [Coenzyme Q10 (CoQ10)] | 109
COc1ccc(COc2cc3oc(=O)c4cc(C(C)O)ccc4c3cc2OC)cc1 (stereo not drawn) [Palomid 529] | 92.9 ± 14
CC(=O)NCCc1c(Cc2ccccc2)[nH]c2ccccc12 [Luzindole] | 106
O=C(O[C@@H]1C[C@@H]2C[C@H]3C[C@H](C1)N2CC3=O)c1c[nH]c2ccccc12 [Dolasetron mesilate] | 97.9

— the supplement of paper PMC8183993
